# According to article PMC4336329 (PLoS ONE, 2015):
# Screen size: about 310,000 compounds; about 14,000 (4.5%) showed an effect of 50% or more. Effects have a minus sign here. Some of the results follow.
# Target: human ether-à-go-go-related gene (hERG) potassium channel (human, UniProt Q12809)
# Experiment: primary screen, population patch clamp on CHO cells stably expressing hERG
# 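Note: peak tail current of the secondary pulse compared with the same well before compound.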
# Chain of human ether-à-go-go-related gene (hERG) potassium channel (Q12809 whole entry, looked up): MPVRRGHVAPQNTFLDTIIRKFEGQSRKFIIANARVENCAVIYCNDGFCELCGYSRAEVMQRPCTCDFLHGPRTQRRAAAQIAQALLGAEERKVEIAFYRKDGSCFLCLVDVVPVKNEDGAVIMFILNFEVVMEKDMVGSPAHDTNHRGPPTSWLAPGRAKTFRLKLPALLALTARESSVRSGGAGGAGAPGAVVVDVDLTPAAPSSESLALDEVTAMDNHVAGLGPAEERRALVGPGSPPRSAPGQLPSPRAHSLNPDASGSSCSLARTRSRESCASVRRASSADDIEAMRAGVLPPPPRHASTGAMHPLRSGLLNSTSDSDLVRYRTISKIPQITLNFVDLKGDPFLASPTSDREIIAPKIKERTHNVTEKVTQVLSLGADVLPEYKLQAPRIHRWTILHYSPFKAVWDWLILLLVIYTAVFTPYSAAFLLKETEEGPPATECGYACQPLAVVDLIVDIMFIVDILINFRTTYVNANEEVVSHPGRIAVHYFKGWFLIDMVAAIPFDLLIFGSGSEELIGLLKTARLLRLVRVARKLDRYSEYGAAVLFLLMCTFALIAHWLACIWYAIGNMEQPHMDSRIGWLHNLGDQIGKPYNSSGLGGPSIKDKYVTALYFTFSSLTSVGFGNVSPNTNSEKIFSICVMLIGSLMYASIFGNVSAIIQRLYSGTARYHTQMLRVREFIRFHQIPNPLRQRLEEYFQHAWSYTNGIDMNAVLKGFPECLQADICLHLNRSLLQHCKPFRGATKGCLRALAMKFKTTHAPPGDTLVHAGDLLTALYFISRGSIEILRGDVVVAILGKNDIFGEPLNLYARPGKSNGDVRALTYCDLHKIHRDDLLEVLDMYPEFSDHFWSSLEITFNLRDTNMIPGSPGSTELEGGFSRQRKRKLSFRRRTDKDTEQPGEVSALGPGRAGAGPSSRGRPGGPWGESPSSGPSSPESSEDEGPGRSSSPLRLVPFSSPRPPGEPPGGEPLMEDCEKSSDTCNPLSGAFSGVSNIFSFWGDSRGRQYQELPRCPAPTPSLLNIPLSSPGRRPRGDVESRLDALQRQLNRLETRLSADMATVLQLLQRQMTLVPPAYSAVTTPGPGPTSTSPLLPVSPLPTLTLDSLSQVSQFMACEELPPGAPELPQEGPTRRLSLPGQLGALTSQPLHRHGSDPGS
row,SMILES,"hERG current change (%, negative = inhibition) at 10uM"
1,CC1CCc2nc(/C(C#N)=C/c3ccncc3)sc2C1 (stereo not drawn),6.83%
2,CC1=NN(c2ccc(Cl)cc2)C(=O)C1C(c1cccc(O)c1)c1c(C)[nH]n(-c2ccc(Cl)cc2)c1=O (stereo not drawn),6.29%
3,COc1ccc2c(c1)NP(=S)(Oc1ccccc1)N2 (stereo not drawn),9.63%
4,COC(=O)c1ccc(C2C(Oc3ccccc3)C(=O)N2CCc2ccc(OC)c(OC)c2)cc1 (stereo not drawn),13.6%
5,CCOc1ccccc1OC(=O)c1cc2ccccc2oc1=O,2.82%
6,CCOC(=O)c1ccc(S(=O)(=O)Nc2cc(C(=O)O)ccc2Cl)cc1,2.13%
7,COc1ccc(NC(=O)/C=C/c2ccc3c(c2)OCO3)cc1,5.2%
8,Cc1nn2c(nc1=O)NNC2(C)C(C)(C)C (stereo not drawn),8.08%
9,COc1ccc(-c2[nH]ncc2CN2CCC(N3CCSCC3)CC2)cc1F,-22.5%
10,COC(=O)[C@@H]1C2CCC(C(=O)Nc3ccccc3)(CC2)[C@@H]1C(=O)OC,19%
11,NC(=O)c1ccsc1NC(=O)CS(=O)(=O)c1ccccc1,-8.27%
12,CCOc1ccc(OCC)c(NC(=O)CN(C)S(=O)(=O)c2cnc[nH]2)c1,6.12%
13,COc1ccc(CCC(C)NCC2CCCCC2)cc1 (stereo not drawn),-14.9%
14,CSc1nnc(C)c(/C=C/NOCc2ccc(Cl)cc2)n1,-8.79%
15,Cc1ccc2c(c1)C1CN(C)CCC1N2S(=O)(=O)c1cccc(F)c1 (stereo not drawn),-11.5%
16,O=C(COc1nsnc1N1CCOCC1)N/N=C/c1ccccc1O,-17.8%
17,CCOC(=O)c1c(NC(=O)CSc2nnc(CN3CCOCC3)n2C)sc2c1CCCC2,-30%
18,CCC(=O)c1ccc(N2CCN(C(=O)c3ccc(F)cc3)CC2)c(F)c1,-60%
19,O=C1OC(Nc2nc3ccccc3s2)c2ccccc21 (stereo not drawn),2.06%
20,COc1ccc(NC(=O)CC2C(=O)N(c3ccc(Cl)cc3)C(=S)N2NC(=O)c2cccc(F)c2)cc1 (stereo not drawn),20.7%
21,COc1ccc(S(=O)(=O)N2CCOCC2)cc1NC(=O)Cc1ccc(Cl)c(Cl)c1,3.6%

row,SMILES,"hERG current change (%, negative = inhibition) at 10uM"
1,COc1ccc(N2CCN(C(=O)c3cn(C)c(=O)c4c3c3ccccc3n4C)CC2)cc1,-14.7%
2,Cc1ccc(N(C(=O)c2sc(C)nc2C)C(C(=O)NC(C)(C)C)c2ccncc2)cc1 (stereo not drawn),25.8%
3,Cc1nnc(SCC(=O)N(C)C2CCS(=O)(=O)C2)n1Cc1ccccc1 (stereo not drawn),0.142%
4,CCOC(=O)Cc1c(Sc2ccccc2)c2ccccc2n1C,4.2%
5,CC[C@@]12C(=O)N(c3cccc(Cl)c3)C(=O)N1[C@H](c1cccc(C)c1)[C@@H]1C(=O)N(Cc3ccccc3)C(=O)[C@@H]12,5.58%
6,COc1cccc(-n2nnc3c(=O)n(CC(=O)N4CCC(C)CC4)cnc32)c1,-14.8%
7,COc1ccc(OC)c(NC(=O)CSc2nc3ccccc3c(=O)n2CCNC(C)=O)c1,-2.83%
8,O=S(=O)(Nc1cccc(-n2cnnn2)c1)c1cc(Cl)ccc1Cl,1.02%
9,Cc1ccccc1/C=C/c1nc2ccccc2c(=O)[nH]1,16.5%
10,CCCCCCCCNc1nc(Cl)nc(NCc2ccco2)n1,10.9%
11,CCn1c(=S)sc2c(=O)n(CC(=O)Nc3cccc(OC)c3)c(C)nc21,0.0573%
12,CC(C)CNC(=S)N1CCC(Cc2ccccc2)CC1,-40.1%
13,COc1ccc(-c2csc3nc(C)nc(N4CCN(c5ccc(C(C)=O)cc5)CC4)c23)cc1OC,-20.6%
14,O=C(CN1C(=O)NC2(CCCCCC2)C1=O)c1ccc(Cl)cc1,-3.05%
15,CC(=O)Nc1nc(C)c(-c2csc(Nc3cccc([N+](=O)[O-])c3)n2)s1,-10.9%
16,CN1CCN(C(=O)c2ccc(CN(c3ccccc3)S(=O)(=O)c3ccccc3)cc2)CC1,-38%
17,COc1ccc(-c2ccccc2)cc1NCc1ccc(OC)c(OC)c1,9.42%
18,O=C(NNC(=S)NC(=O)c1ccccc1[N+](=O)[O-])c1ccccc1,11.1%
19,CCOC(=O)Cc1csc(SCC(=O)Nc2sc3c(c2C(N)=O)CCC3)n1,8.17%
20,CCC1CCCCN1C(=O)c1c[nH]c2ccc(S(=O)(=O)N(C)c3ccc(Cl)cc3)cc2c1=O (stereo not drawn),-33.8%
21,CC(=O)N(C(C)=O)c1c(C#N)c(C)n(-c2ccccc2)c1C(=O)c1ccccc1,-4.71%
